Our source for the survival values is PubChem BioAssay AID463173 (ICCB-Longwood Screening Facility, Harvard Medical School, 2010).

In all, about 52,000 compounds went through this assay and about 4,300 (8.3%) were called active. Rule as the data show it: active = survival mostly below about 52% (no sharp cut-off); inactive = mostly above about 56%. The list shows a part of the results.

The subject of this assay is DeltatarO mutant. Briefly: S. aureus survival, RN4220 and DeltatarO strains – OD600, teichoic acid synthesis inhibitors, primary screen (AID 463173). The following applies: S. aureus RN4220 wild type/DeltatarO growth, OD600, 18 h, active compounds read low, screened at 18.75 µg/mL (by protocol).
`CCOc1ccc(-c2cc(C#N)on2)cc1`: the survival was inactive: 101%.
For `CCOc1ccc(NC(=O)CSc2nc3c(c(=O)[nH]2)CCCC3)cc1` the value was inactive: 62%; for `COc1cc(C2c3c(oc4ccc(F)cc4c3=O)C(=O)N2c2nc(C)c(C)s2)cc(OC)c1OC` (configuration not stated), inactive: 157%.
The value for `O=C(CCS(=O)(=O)c1cc(Br)cc2c1N(C(=O)C1CC1)CC2)N1CCN(c2ccc(F)cc2)CC1` was inactive: 67%; that for `Cc1ccc(N(C)C(=O)Cn2cnc3onc(-c4ccc(F)cc4)c3c2=O)cc1C` was inactive: 73%; that for `O=C(Nc1ccccc1)c1cnc[nH]1` was inactive: 71%.
The value for `CCC(=O)Nc1ccc(C)cc1-c1nc2ccccc2n(CC(=O)Nc2ccccc2Cl)c1=O` was inactive: 75%; that for `COc1cc(OC)cc(C(=O)Nc2ccc3oc(-c4ccccc4C)nc3c2)c1` was active: 34%.
For `COc1ccc(NC(=O)Cn2c(=O)n(CC3CCCO3)c(=O)c3ccccc32)c(OC)c1` (configuration not stated), the survival was inactive: 97%.
The value for `COc1cccc(-c2cc(C(=O)Nc3cc(C)nn3-c3ccccc3)no2)c1` was inactive: 74%.
The value for `CCN(CC)S(=O)(=O)c1nnc(NC(=O)c2ccccc2Cl)s1` was inactive: 70%; that for `CC(C)CNc1nc(NC(C)(C)C)nc(Oc2ccc(=O)n(-c3ccccc3)n2)n1` was inactive: 68%.
On to `Cc1ccc(CCNC(=O)c2cc3c(=O)oc4ccccc4c3s2)cc1`, for which the survival is inactive: 78%.
Consider `Cc1nn2c(C)c(C(=O)N3CCN(c4ccccc4)CC3)cnc2c1-c1ccccc1`, for which the survival is inactive: 94%.
Take `O=C(c1csc(Nc2ccccc2Cl)n1)N1CCCC1`: the survival is inactive: 103%.
For `COc1ccccc1OCCn1c(COc2cc(C)ccc2C)nc2ccccc21` the value was inactive: 61%; for `COc1cc(NC(=O)CSc2nc3ccccc3nc2Cc2ccccc2OC)cc(OC)c1`, inactive: 80%.
For the compound `C/C(=N\Nc1nc2sc3c(c2c2ncnn12)CC(C)(C)OC3)C(=O)O`, the survival was inactive: 78%.
The value for `COc1cccc(CNC(=O)CNS(=O)(=O)c2ccc3nc(C)sc3c2)c1` was inactive: 82%; that for `CC(C)/C=N/NC(=O)c1ccccc1` was inactive: 78%; that for `CCOc1ccccc1Nc1sc(C(=O)c2ccccc2)c(N)c1C(=O)NCCc1ccccc1` was inactive: 99%.
For the compound `O=C(c1ccc(Cl)cc1)N(Cc1ccco1)Cc1ccco1`, the survival was inactive: 97%.
The value for `CCC(C)(C)NS(=O)(=O)c1cc(-c2cc(C)no2)ccc1C` was inactive: 84%; that for `CCN1c2ccccc2-c2nc(SCC(=O)Nc3cccc(C(F)(F)F)c3)ncc2S1(=O)=O` was inactive: 70%; that for `COc1cc(O)ccc1C1CC(=O)Nc2c1c(=O)nc(SCc1ccccc1C)n2C` (configuration not stated) was inactive: 93%.
As for `COc1ccc(CNc2oc(-c3ccc(COc4ccc(Cl)cc4)o3)nc2C#N)cc1`, the survival is inactive: 97%.
The value for `Cc1ccc(C)c(CN2C(=O)c3ccccc3S(=O)c3ccc(C(=O)N4CCC(C)CC4)cc32)c1` (configuration not stated) was inactive: 85%; that for `S=c1nc[nH]c2c1[nH]c1ccccc12` was inactive: 103%; that for `COc1ccc(CNC(=O)c2c(Nc3ccc(OC)cc3OC)sc(C(=O)c3ccc(Cl)cc3)c2N)cc1` was inactive: 102%.
The value for `CCOC(=O)CSc1nc2sc3c(c2c(=O)n1Cc1ccccc1)CCC(C(C)(C)C)C3` (configuration not stated) was inactive: 61%; that for `COc1ccc2c(c1)c1c(c(=O)n(CCc3ccccc3)c(=O)n1Cc1ccccc1)n2C` was inactive: 90%; that for `O=C(c1cc2ccc3cccnc3c2[nH]1)N1CCN(c2cccc(C(F)(F)F)c2)CC1` was active: 0%.
For `Cc1ccc(NC(=O)c2oc3ccc(S(=O)(=O)N4CCCCC4)cc3c2C)cc1C` the value was inactive: 84%; for `Cc1ccc(C)c2sc(NC(=O)c3ccc(S(=O)(=O)N4CCCC4)cc3)nc12`, active: 25%; for `CC(=O)N1CCOc2cc(S(=O)(=O)NCc3ccc(C)cc3)c(C)cc21`, inactive: 91%.
With `COc1ccc(N(C(=O)c2ccccc2F)S(=O)(=O)c2ccc3c(c2)n(C)c(=O)n3C)cc1`, the survival was inactive: 46%.
For `Cc1c(CNCc2ccc(OC(C)C)cc2)c(C(=O)O)c(C)n1Cc1ccc(Cl)cc1` the value was inactive: 98%.
The value for `CCN1CCN(CCCNC(=O)c2cc3c(=O)n(CC)c4ccccc4c3s2)CC1` was inactive: 97%; that for `COc1ccc(CCNC(N)=S)cc1OC` was inactive: 99%; that for `COc1ccc(-c2cc(C(F)(F)F)nc(SCC(=O)N(C)Cc3ccccc3)n2)cc1OC` was active: 33%.
In the case of `Cc1ccc2cc(CN(CC3CCCO3)C(=O)C(F)(F)F)c3nnnn3c2c1C` (configuration not stated), the survival is inactive: 76%.
For `O=C(Nc1cccc(-c2nc3ccccc3o2)c1)c1cc([N+](=O)[O-])ccc1N1CCOCC1` the value was active: 42%; for `Cc1cccc(C)c1OCCSc1nc2ccccc2n1CC(=O)O`, inactive: 83%.
For `CCN(Cc1ccccc1)C(=O)Cn1c(=O)n(-c2ccc(F)c(Cl)c2)c(=O)c2sc3ccccc3c21` the value was inactive: 89%.
For `COc1ccc(-c2nc3c4cnn(-c5ccccc5F)c4ncn3n2)cc1` the value was inactive: 59%.
As to `CC(=O)Nc1ccc(NS(=O)(=O)c2ccc3c(c2)CC(C)N3C(=O)C2CCC2)cc1` (configuration not stated), the survival is inactive: 85%.
`COC(=O)CC1Oc2ccc(F)cc2-n2cc(-c3ccc(Cl)cc3)nc21` (configuration not stated): the survival was inactive: 65%.
Turning to `COc1ccc(-c2cnc(N)n2CC2CCCO2)cc1` (configuration not stated), the survival is inactive: 71%.
Consider `COc1ccc(NC(=O)CN2CCCN(S(=O)(=O)c3ccc(Br)cc3)CC2)c(OC)c1`, for which the survival is inactive: 65%.
For `CCOC(=O)c1ccc(NC(=O)CCS(=O)(=O)c2ccc(C)cc2)cc1` the value was inactive: 68%; for `Cc1cccc(-c2nc(CCNC(=O)c3ccco3)cs2)c1`, active: -5%.
The value for `COc1ccc(Cn2nnnc2C(c2ccccc2)N2CCC(C)CC2)cc1` (configuration not stated) was inactive: 68%.
As for `CC1CCCCN1C(=S)Nc1ccccc1` (configuration not stated), the survival was inactive: 100%.
The value for `CC(C)OCCCNC(=O)CCCn1c(=O)[nH]c2ccsc2c1=O` was inactive: 80%.
For the compound `C=CCn1cnc2scc(-c3ccccc3)c2c1=O`, the survival is inactive: 89%.
The value for `CCOc1ccc(CNC(=O)c2cc(=O)[nH]c3ccc(S(=O)(=O)N4CCCCC4)cc23)cc1` was inactive: 84%; that for `Cc1cc(C)cc(Nc2cc(C(=O)NCCCN(Cc3ccccc3)C(C)C)c3ccccc3n2)c1` was active: -4%.
Consider `O=C(O)CSC1=NCCCN1`, for which the survival is inactive: 92%.
Turning to `COc1ccc(CN(C(=O)c2cc3ccccc3oc2=O)C2CCS(=O)(=O)C2)cc1` (configuration not stated), the survival is inactive: 55%.
Turning to `COc1ccc(C(=O)Nc2ccc(NC(=O)c3ccco3)cc2)cc1OC`, the survival is inactive: 71%.
The value for `COc1cc(NC(=O)CC(c2ccc(C)cc2)N2Cc3ccccc3C2=O)cc(OC)c1` (configuration not stated) was inactive: 67%; that for `Cc1ccc(-c2noc(-c3ccc(NCc4ccco4)c([N+](=O)[O-])c3)n2)cc1` was inactive: 98%.
Turning to `COc1ccc(S(=O)(=O)C(C)(C)C)cc1`, the survival is inactive: 78%.
Consider `COc1cc(C2CC(=O)c3c([nH]c(C(=O)OCC4CCCCC4)c3C)C2)cc(OC)c1OC` (configuration not stated), for which the survival was inactive: 82%.
For `COc1ccc(-c2nc(C)c(CCNC(=O)C(=O)Nc3ccccc3C#N)s2)cc1OC` the value was inactive: 88%.
For `COc1ccc(-n2nnc(-c3nc(-c4cccs4)no3)c2N)cc1OC` the value was inactive: 74%.
The value for `COC(=O)c1c(NC(=O)c2nc(SCc3cccc(C)c3)ncc2Cl)sc2c1CCCC2` was inactive: 113%; that for `CC(=O)N1CCCC1c1nc2ccccc2n1Cc1cccc(Cl)c1` (configuration not stated) was inactive: 85%.
`CCOc1ccccc1CNC(=O)Cn1ncn2nc(-c3cccs3)cc2c1=O`: the survival was inactive: 67%.
The value for `Cc1ccc(C)c(CNC(=O)C2CCN(c3nc4ccccc4nc3C(F)(F)F)CC2)c1` was inactive: 98%.
Turning to `COc1ccc(Nc2nnc(-c3cc4c(ccc5ccccc54)oc3=O)s2)cc1`, the survival was inactive: 82%.
In the case of `COc1ccccc1CCNC(=O)C(=O)NCC(c1cccs1)S(=O)(=O)c1ccc(C)cc1` (configuration not stated), the survival is inactive: 68%.
The value for `COc1ccccc1C(=O)Nc1nc2nc(-c3ccccc3)cc(=O)n2[nH]1` was inactive: 74%.
For `CCc1nn2c(=O)cc(COC(=O)c3ccc(NC(=O)c4cccs4)cc3)nc2s1` the value was inactive: 94%; for `Cc1ccccc1NS(=O)(=O)c1ccc2[nH]cc(C(=O)NC(C)c3ccccc3)c(=O)c2c1` (configuration not stated), inactive: 90%; for `CCN(CC)CCCNC(=O)c1ccc2nc(N3CCCCC3)sc2c1`, inactive: 102%.
For `CCNC(=O)c1ccc2nc(CCc3ccccc3)oc2c1` the value was inactive: 102%; for `COc1ccc(CCNC(=O)c2cc(C)nc3c2c(C)nn3-c2ccc(C)cc2)cc1OC`, inactive: 102%; for `O=C1c2ccccc2C(=O)N1COc1cccc2cccnc12`, inactive: 97%.
For `Cc1n[nH]c(C)c1S(=O)(=O)N1CCCC(C(=O)Nc2ccc(Br)cc2)C1` (configuration not stated), the survival was inactive: 130%.
The value for `Cc1cc(Nc2ccccc2C)nc(-n2nc(C)cc2C)n1` was inactive: 83%; that for `O=C1C(=O)N(C2CCN(C(=O)c3ccc(Cl)cc3)CC2)CCN1Cc1ccc(F)cc1` was inactive: 78%.
The value for `CCN1CCN(CCC(=O)Nc2ccc3c(c2)CCC3)CC1` was inactive: 95%.
The value for `CCCOc1ccc(CN(C(=O)c2cc(=O)c3ccc(C)cc3o2)C2CCS(=O)(=O)C2)cc1` (configuration not stated) was active: 36%; that for `COc1ccc(N2CCN(S(=O)(=O)CCNC(=O)C3CC(=O)N(c4ccccc4)C3)CC2)cc1` (configuration not stated) was inactive: 83%.
Take `COc1cccc(C(=O)CC2(O)C(=O)Nc3ccc(Cl)cc32)c1` (configuration not stated): the survival was inactive: 176%.
The value for `COc1cc(C)ccc1OCCSc1nc(-c2cccc(C)c2)nc2cc(=O)[nH]n12` was inactive: 69%; that for `CCOC(=O)c1ccc(C(=O)OCC)nc1` was inactive: 83%; that for `Cc1nc(CC(=O)Nc2cc(Cl)ccc2C)cs1` was active: 45%.
The value for `O=C(CN1CCSc2ccccc21)NCc1ccccc1F` was inactive: 85%; that for `CCOc1ccccc1C(=O)N(Cc1cc(OC)c(OC)c(OC)c1)C1CCS(=O)(=O)C1` (configuration not stated) was inactive: 48%; that for `CCOc1ccccc1CN1CCc2nc(N3CCN(c4ccccc4F)CC3)ncc2C1` was active: -4%.
